{"source": "the BET-seq Pho4 binding data (Le et al. 2018)", "note": "This is one part of the list. The energies were worked out here from pooled read counts, against the library average; single values are noisy."}
{"biological_target": "T1, Pho4 (S. cerevisiae) (UniProt P07270)", "T1 sequence": "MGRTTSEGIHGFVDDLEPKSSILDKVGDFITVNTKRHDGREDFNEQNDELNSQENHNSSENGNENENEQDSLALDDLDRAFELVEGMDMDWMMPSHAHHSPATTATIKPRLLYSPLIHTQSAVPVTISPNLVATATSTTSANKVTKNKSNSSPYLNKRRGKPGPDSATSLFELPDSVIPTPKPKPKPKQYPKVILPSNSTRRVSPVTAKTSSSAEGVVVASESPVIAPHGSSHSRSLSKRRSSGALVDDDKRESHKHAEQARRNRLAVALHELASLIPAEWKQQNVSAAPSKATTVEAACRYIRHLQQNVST", "test": "relative binding free energy (BET-seq); higher = weaker binding", "conditions": "reference: library average", "units": {"relative binding free energy": "kcal/mol"}}
{"sequence": "TTGGGCACGTGGATGT", "relative binding free energy": -0.05}
{"sequence": "TAGGTCACGTGTTTCG", "relative binding free energy": 0.17}
{"sequence": "GCTTTCACGTGGGGGA", "relative binding free energy": 0.02}
{"sequence": "GTAGTCACGTGAAAGA", "relative binding free energy": 0.4}
{"sequence": "GGTTTCACGTGGCCGG", "relative binding free energy": 0.38}
{"sequence": "TCTTGCACGTGATGGT", "relative binding free energy": 0.09}
{"sequence": "ATTTTCACGTGACGGT", "relative binding free energy": 0.41}
{"sequence": "TGTATCACGTGACGGT", "relative binding free energy": 0.21}
{"sequence": "AGTGGCACGTGAGCAA", "relative binding free energy": 0.06}
{"sequence": "ATTGTCACGTGTGGCA", "relative binding free energy": 0.15}
{"sequence": "CTTGGCACGTGATGTG", "relative binding free energy": -0.04}
{"sequence": "GGATACACGTGAGTGT", "relative binding free energy": 0.27}
{"sequence": "TAATACACGTGTGTTG", "relative binding free energy": 0.05}
{"sequence": "TAATGCACGTGTTAAT", "relative binding free energy": -0.06}
{"sequence": "CTGTGCACGTGGATTG", "relative binding free energy": 0.06}
{"sequence": "TTTTCCACGTGGATAT", "relative binding free energy": 0.26}
{"sequence": "CAGTGCACGTGGGGCT", "relative binding free energy": -0.27}
{"sequence": "AATTTCACGTGTATTG", "relative binding free energy": 0.23}
{"sequence": "CGATTCACGTGAGGTG", "relative binding free energy": 0.27}
{"sequence": "AGGGGCACGTGGCATA", "relative binding free energy": -0.31}
{"sequence": "TATCGCACGTGTATGT", "relative binding free energy": 0.03}
{"sequence": "CTGGTCACGTGAGTGA", "relative binding free energy": 0.38}
{"sequence": "TATATCACGTGTGATT", "relative binding free energy": 0.23}
{"sequence": "AGCTTCACGTGGGTAG", "relative binding free energy": 0.18}
{"sequence": "ATTTGCACGTGAATGA", "relative binding free energy": 0.22}
{"sequence": "TAGTTCACGTGGTGGC", "relative binding free energy": 0.31}
{"sequence": "TGTGGCACGTGCAGTT", "relative binding free energy": -0.11}
{"sequence": "GAGGCCACGTGTAAGG", "relative binding free energy": 0.19}
{"sequence": "AAATGCACGTGAGTGT", "relative binding free energy": 0.2}
{"sequence": "AATTGCACGTGAACGG", "relative binding free energy": 0.26}
{"sequence": "TTCTGCACGTGTTCTT", "relative binding free energy": 0.09}
{"sequence": "AGATGCACGTGTCTTT", "relative binding free energy": -0.03}
{"sequence": "TGAAACACGTGTCTGT", "relative binding free energy": 0.13}
{"sequence": "TGAATCACGTGCTTTA", "relative binding free energy": 0.13}
{"sequence": "TAGTACACGTGGTGAT", "relative binding free energy": 0.03}
{"sequence": "TGGGTCACGTGTGTTC", "relative binding free energy": 0.17}
{"sequence": "GTTGTCACGTGTGCTA", "relative binding free energy": 0.13}
{"sequence": "GCGGGCACGTGGTGTG", "relative binding free energy": -0.16}
{"sequence": "AATGTCACGTGGGGAA", "relative binding free energy": 0.02}
{"sequence": "GGGATCACGTGCTTTT", "relative binding free energy": 0.26}
{"sequence": "TATGGCACGTGGCGGG", "relative binding free energy": -0.23}
{"sequence": "GTTTCCACGTGGGTGC", "relative binding free energy": -0.07}
{"sequence": "ATGGGCACGTGGGCAA", "relative binding free energy": -0.07}
{"sequence": "GTGCGCACGTGTTGGC", "relative binding free energy": 0.04}
{"sequence": "TGCTTCACGTGGTCAG", "relative binding free energy": 0.06}
{"sequence": "GGTGGCACGTGCCGTT", "relative binding free energy": -0.08}
{"sequence": "ATTGGCACGTGTGGCG", "relative binding free energy": 0.04}
{"sequence": "TAGTTCACGTGATAGT", "relative binding free energy": 0.28}
{"sequence": "AGCTTCACGTGGTGGC", "relative binding free energy": 0.3}
{"sequence": "TCTTTCACGTGGGTGA", "relative binding free energy": 0.31}
{"sequence": "CTTGGCACGTGTACGT", "relative binding free energy": -0.05}
{"sequence": "AAGTTCACGTGGTTGG", "relative binding free energy": 0.22}
{"sequence": "TTATTCACGTGATGAG", "relative binding free energy": 0.29}
{"sequence": "TAAAGCACGTGGAATG", "relative binding free energy": 0}
{"sequence": "ATTGTCACGTGTTGAC", "relative binding free energy": -0.04}
{"sequence": "TGGGACACGTGTGCGA", "relative binding free energy": -0.05}
{"sequence": "TTAGGCACGTGAGTCA", "relative binding free energy": 0}
{"sequence": "ATGTTCACGTGTGAGT", "relative binding free energy": 0.24}
{"sequence": "ATTGTCACGTGTACTT", "relative binding free energy": 0.09}
{"sequence": "AAAGGCACGTGTAGTG", "relative binding free energy": -0.12}
{"sequence": "TGTGGCACGTGTATTC", "relative binding free energy": 0.04}
{"sequence": "GGAGACACGTGGGTGT", "relative binding free energy": -0.04}
{"sequence": "CGGGTCACGTGCTGGG", "relative binding free energy": 0.12}
